The experiment relates to profilin II-GFP transfected hippocampal neurons.
[1] abbreviates: with glutamate while blocking receptor subtype, APV 500 μM, MK-801 50 μM, CNQX 20 μM, NBQX 20 μM, MCPG 100 μM-1 mM, Ly341495 30 μM, 15 min preincubation.
Setting [2] is: 90 mM KCl 4 times for 3 min with 10 min intervals.
Where [3] appears, read: [Ca2+]0 0, 30 min, glutamate 10 μM, thapsigargin 1 μM.
Where [4] appears, read: [Ca2+]0 2 mM, 30 min, glutamate 10 μM, thapsigargin 1 μM.
[5] abbreviates: agonist alone, 30 min, glutamate 10 μM, NMDA 10 μM, DHPG 10 μM, AMPA 2 μM.

The record followed here is US20050048462A1, “Markers and screens” (priority 2001, published 2005).

Each structure is given as a SMILES string. Structures can show the parent of a compound that is named as a salt. Where two headings read alike, the source gives them in different places.

Take `N[C@H](CCCP(=O)(O)O)C(=O)O` [APV, D(−)-2-amino-5-phosphonopentanoic acid]: for the setting “90 mM KCl (spaced) + 100 μM APV”, the “Numbers of cells − (no targeting)” value was found to be 7. Where the note is “90 mM KCl, continuous (n=5) and spaced (n=7), in the presence of APV”, the “Cells showing any redistribution of profilin to spines” value is reported as “none”. For the same compound, under “glutamate with NMDA receptors blocked”, the “Effect on glutamate-induced profilin II targeting (in words)” value is “greatly reduced”. Also, under setting [1], the “Number of cells + (partial profilin II-GFP targeting)” value is 5, the “Number of cells ++ (strong profilin II-GFP targeting)” value is listed as “none” and the “Number of cells − (no profilin II-GFP targeting)” value was determined as 17.
In the case of `[Cl-].[K+]` [KCl], under setting [2], the “Numbers of cells + (weak targeting)” value is 2 and the “Numbers of cells ++ (strong targeting)” value was determined as 3. Also, for the setting “90 mM KCl continuously for 30 min (n=2)”, the “Shift of profilin II into spines (in words)” value is reported as “weak shift”.
Turning to `C[C@]12N[C@H](Cc3ccccc31)c1ccccc12` [MK-801, (5R,10S)-(+)-5-methyl-10,11-dihydro-5H-dibenzo[a, d]cyclohepten-5,10-imine hydrogen maleate], the “Number of cells − (no profilin II-GFP targeting)” value ([…], APV 500 μM, MK-801 50 μM, CNQX 20 μM, NBQX 20 μM, MCPG 100 μM-1 mM, Ly341495 30 μM, 15 min preincubation) was determined as 6.
Take `C/C=C(/C)C(=O)O[C@H]1C(C)=C2[C@H]([C@@H]1OC(=O)CCCCCCC)[C@@](C)(OC(C)=O)C[C@H](OC(=O)CCC)[C@@]1(O)[C@H]2OC(=O)[C@@]1(C)O` [Thapsigargin, thapsigargin]: under setting [3], the “Numbers of cells + (weak targeting of profilin II-GFP)” value worked out at 2 and the “Numbers of cells − (no targeting of profilin II-GFP)” value is reported as 5. Moreover, under setting [4], the “Numbers of cells + (weak targeting of profilin II-GFP)” value is reported as 5, the “Numbers of cells ++ (strong targeting of profilin II-GFP)” value stood at 5 and the “Numbers of cells − (no targeting of profilin II-GFP)” value is on record as 5. Also, the “Profilin II targeting to spines (in words)” value (absence of extracellular Ca2+, glutamate 10 μM, thapsigargin 1 μM) was “only weak redistribution of profilin II in a minority of cells”. The “Cells showing accumulation of profilin II in spines” value (thapsigargin 1 μM, extracellular Ca2+ present, out of 15 cells tested) turned out to be 10.
Consider `N[C@@H](CCC(=O)O)C(=O)O` [glutamate], for which the “Time at which redistribution of profilin II-GFP into spine heads was maximal” value (10 μM glutamate) was 30 min. Also, the “Numbers of cells − (no targeting of profilin II-GFP)” value under setting [3] was determined as 5. Also, under setting [5], the “Number of cells in category + (partial targeting of profilin II-GFP to spines)” value worked out at 3, the “Number of cells in category ++ (strong targeting of profilin II-GFP to spines)” value came to 22 and the “Number of cells in category − (no targeting of profilin II-GFP to spines)” value stood at 1. Further, for the setting “agonist alone, glutamate 10 μM, NMDA 10 μM, DHPG 10 μM”, the “Profilin II-GFP redistribution to dendritic spines (in words)” value is “strong redistribution”. Where the note is “glutamate 30 min, then 4 or 16 hours in medium without glutamate (n=10 cells at 4 h, 4 cells at 16 h)”, the “Profilin II concentration in spine heads after long post-stimulus incubation (in words)” value was “undiminished levels”.
